The values that follow are results of earlier work, collected in EP2150620B1, “Method for preparing C-6 phosphorylated D-aldohexoses and C-6 phosphorylated D-aldohexose derivatives, and new C-6 phosphorylated D-aldohexose derivatives” (Libragen, priority 2007, dated 2008).

For this data set the following is noted: based on acute oral and inhalation data with rats; cited from earlier work.

`ClP(Cl)Cl` [PCl3]: the toxicity classification entry is “highly toxic to mammals”.
